Measurements reported in PubChem BioAssay AID1645887 (National Center for Advancing Translational Sciences (NCATS), 2021).
“And” between values parts separate entries of the source, which are not always exact repeats. Identical values can stand only once. Hit rate of the full screen: of about 16,000 compounds, about 40 (0.2%) were called active. Not shown: some 1% with an inconclusive outcome. Calls follow the shape of the dose curve; as a rule, active = well fitted activation curve with a large enough effect; inconclusive = small, poorly fitted or top-dose-only effect, or another doubt; inactive = no such curve, though single readings can be large or run the other way. The list shows a part of the results. Starred links: 1 amine or outer side, 2 acyl side, 3 side chain; linkers in the order of their positions; H or OH if unused. Positions of bridges follow the written chain, without caps; N, C: chain ends. Non-standard residues stand in square brackets, D forms with d. Residues, ends and D or L forms follow the SMILES beside them. Chains are numbered I, II in the order given. Actinocin(9to1) = Cc1c2oc3c(C)ccc(C(=O)[*:1])c3nc-2c(C(=O)[*:2])c(N)c1=O; NMeV = CN[C@H](C(=O)O)C(C)C; Sar = CNCC(=O)O

Target: Rap guanine nucleotide exchange factor 4 (Homo sapiens) (UniProt Q8WZA2)
UniProt Q8WZA2, sequence (Q8WZA2 whole entry, looked up): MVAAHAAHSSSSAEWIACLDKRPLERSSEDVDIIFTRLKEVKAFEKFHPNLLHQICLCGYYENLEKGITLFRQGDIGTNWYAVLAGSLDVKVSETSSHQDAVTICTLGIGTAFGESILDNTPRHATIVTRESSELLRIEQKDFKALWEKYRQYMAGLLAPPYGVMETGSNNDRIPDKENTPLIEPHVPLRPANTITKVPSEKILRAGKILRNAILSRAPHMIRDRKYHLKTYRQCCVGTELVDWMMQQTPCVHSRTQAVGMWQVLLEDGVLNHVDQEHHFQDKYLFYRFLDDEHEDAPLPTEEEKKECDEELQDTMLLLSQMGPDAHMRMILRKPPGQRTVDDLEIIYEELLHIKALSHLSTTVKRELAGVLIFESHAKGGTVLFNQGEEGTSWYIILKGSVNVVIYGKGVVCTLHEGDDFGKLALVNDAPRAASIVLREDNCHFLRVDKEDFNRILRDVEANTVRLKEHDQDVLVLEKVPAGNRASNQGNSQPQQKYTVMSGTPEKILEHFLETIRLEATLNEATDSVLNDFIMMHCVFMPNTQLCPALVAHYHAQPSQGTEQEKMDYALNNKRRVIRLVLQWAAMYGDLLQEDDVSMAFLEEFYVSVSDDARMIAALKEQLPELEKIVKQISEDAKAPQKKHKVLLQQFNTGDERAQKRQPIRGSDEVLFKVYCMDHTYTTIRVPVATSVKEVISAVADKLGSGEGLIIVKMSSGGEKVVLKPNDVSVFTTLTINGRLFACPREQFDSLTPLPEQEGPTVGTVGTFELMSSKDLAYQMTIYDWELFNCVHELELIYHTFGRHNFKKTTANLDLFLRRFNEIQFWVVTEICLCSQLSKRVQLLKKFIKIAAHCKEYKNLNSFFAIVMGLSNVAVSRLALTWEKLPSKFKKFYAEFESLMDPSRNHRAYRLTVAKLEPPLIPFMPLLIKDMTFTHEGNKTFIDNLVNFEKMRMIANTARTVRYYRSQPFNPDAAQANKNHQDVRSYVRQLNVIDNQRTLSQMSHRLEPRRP
Assay: Validation qHTS for agonist of cAMP-regulated guanine nucleotide exchange factor 4 (EPAC2);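 also: exchange makes BODIPY-GDP fluorescence drop when released from Rap1B; series mostly up to about 150 µM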
Details: EPAC2 Rap1B BODIPY-GDP exchange, fluorescence; activation: stronger effect = higher value
Method in brief: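 Signal normalized against 6.5 mM cAMP as agonist control. Mix of EPAC2 (100 nM), RAP1B-BODIPY-GDP (250 nM) and GDP (50 uM) was read kinetically at 480/540 nm, every 5 min over 30 min, after 5 min room-temperature incubation with compound.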
% is scaled to controls: 0 for no effect and ±100 for the full control effect.

activation, inactive:
CCCCN(CC)CCOc1cccc2ccccc12 -7.81%
CCN(CC)CCOc1ccc(-c2nc3cc(Cl)ccc3s2)cc1 -1.82%
CC(C)NC(=O)[C@@H]1C[C@@H](Sc2ccccn2)CN1C1CCN(C)CC1 -0.85%
CC1(C)[C@@H]2CC[C@@]1(C)[C@H](OC(=O)CSC#N)C2 -3.68%
O=C(c1cc(C(F)(F)F)cc(C(F)(F)F)c1)N1CCC[C@@]2(CCN(Cc3ccccc3)C2)C1 -17.8%
N#CCCn1c(=O)c(-c2cccc(C#N)c2)nc2cnc(N3CCOCC3)nc21 -23.1%
O=C([C@@H]1CC=C[C@@H]2CCN(C3CC3)C(=O)[C@@H]21)N1CCOCC1 -16.9%
CC1C(=O)OC2CC34C5CC(C(C)(C)C)C36C(OC(=O)C6O)OC4(C(=O)O5)C21O (stereo not given) -12%
COc1ccc2c(c1)c(CC(=O)OCC(=O)O)c(C)n2C(=O)c1ccc(Cl)cc1 -15.9% and -17.2%
CC(C)Cc1ccc([C@@H](C)C(=O)NS(C)(=O)=O)cc1 -6.95%
C=CC[n+]1cccc2cccc(O)c21 -29.3%
O=C(C[n+]1ccccc1Cl)c1ccc(Br)cc1 -21.2%
CC(=NCc1ccccc1)c1ccccc1O 10.2%
COC(=O)N1CCC2(CCN(C(=O)Nc3ccc(OC)cc3)CC2)CC1 -17.9%
CC(C)CCCC(C)C1CCC2C3CC=C4CC(O)CCC4(C)C3CCC12C (stereo not given) -6.61%
Cc1c2oc3c(C)ccc(C(=O)N[C@@H]4C(=O)N[C@H](C(C)C)C(=O)N5CCC[C@H]5C(=O)N(C)CC(=O)N(C)[C@@H](C(C)C)C(=O)O[C@@H]4C)c3nc-2c(C(=O)N[C@@H]2C(=O)N[C@H](C(C)C)C(=O)N3CCC[C@H]3C(=O)N(C)CC(=O)N(C)[C@@H](C(C)C)C(=O)O[C@@H]2C)c(N)c1=O (I: T[dV]P[Sar][NMeV] / II: T[dV]P[Sar][NMeV]; ester I:1-I:C, II:1-II:C; linker I:N-II:N via Actinocin(9to1)) -15.1%
O=C1C[C@H]2C=CCc3cccc(c32)CN1Cc1ccc(F)cc1 -12.9%
COc1ccc(Oc2ncc3nc(-c4cccs4)c(=O)n(C)c3n2)cc1 9.56%
CN(C)C(=O)c1ccc(-c2cc(NCc3ccccc3)ncn2)cc1 -9.11%
O=S(=O)(c1ccccc1)N1CCC2(CCN(c3ccccc3)CC2)CC1 6.19%
